Assay results: patent US20160193325A1 (priority 2002, published 2016)

Target: E1E2 complexes (Hepatitis C virus genotype 1a, UniProt P27958)
Type: binding, HCV
Details: pre-incubated with the HCVpp

E1E2 complexes, sequence (P27958 384-745 limits assumed): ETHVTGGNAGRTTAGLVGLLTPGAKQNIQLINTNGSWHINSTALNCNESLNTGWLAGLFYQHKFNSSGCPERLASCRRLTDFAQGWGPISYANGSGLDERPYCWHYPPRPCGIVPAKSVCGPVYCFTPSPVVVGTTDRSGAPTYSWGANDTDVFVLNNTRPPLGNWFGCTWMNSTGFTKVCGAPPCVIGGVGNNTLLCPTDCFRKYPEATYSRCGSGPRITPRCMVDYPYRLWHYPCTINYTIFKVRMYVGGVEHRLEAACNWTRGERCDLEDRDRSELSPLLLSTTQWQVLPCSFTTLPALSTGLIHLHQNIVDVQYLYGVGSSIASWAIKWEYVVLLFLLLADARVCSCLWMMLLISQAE
E1E2 complexes, sequence (P27958 192-383 partner limits assumed): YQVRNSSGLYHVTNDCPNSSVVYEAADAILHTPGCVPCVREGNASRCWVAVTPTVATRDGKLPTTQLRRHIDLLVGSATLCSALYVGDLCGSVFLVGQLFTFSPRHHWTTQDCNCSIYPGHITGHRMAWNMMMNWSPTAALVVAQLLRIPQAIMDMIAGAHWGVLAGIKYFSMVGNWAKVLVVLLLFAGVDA

B1: GST-fusion hCD81-LEL polypeptides: recombinant GST-fusion polypeptides encompassing the large extra-cellular loop of human CD81 (protein)
chain: FVNKDQIAKDVKQFYDQALQQAVVDDDANNAKAVVKTFHETLDCCGSSTLTALTTSVLKNNLCPSGSNIISNLFKEDCHQKIDDLFSGK
modifications: left off: a dimerising Fc or GST
notes: recombinant GST-fusion polypeptides encompassing the large extra-cellular loop of human CD81
  precipitation of E1E2 complexes: could specifically precipitate E1E2 complexes
